Source: PubChem BioAssay AID686978 (National Center for Advancing Translational Sciences (NCATS), 2013)
“And” between values parts separate entries of the source, which are not always exact repeats. Equal entries are not always repeated. Screen size: about 420,000 compounds; about 64,000 (15%) were called active. Inconclusive means that the source gave no clear call. Such entries were picked first, then a sample of the others. Calls come from the whole dose curve; as a rule, active = well fitted inhibition curve with a large enough effect; inconclusive = small, poorly fitted or top-dose-only effect; inactive = flat fitted curve, though single readings scatter. Potencies of inconclusive entries are doubtful fits and often do not repeat.

Assay: qHTS for Inhibitors of human tyrosyl-DNA phosphodiesterase 1 (TDP1): qHTS in cells in absence of CPT; note: nearly all actives have a fitted effect of over 55% in size
Details: DT40 Tdp1-/- hTDP1 cells, no CPT, ATP luminescence, 48 h; activity change, negative = growth inhibition: at 46.2 µM (top of the series) unless noted
Summary of the method: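 A cellular qHTS used chicken DT40 cells lacking endogenous Tdp1 but carrying stably transfected human TDP1. Compounds were applied without camptothecin, and cell growth kinetics were judged by ATP-dependent luminescence after ≥48 hr.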
% is set by controls: 0 for no effect and ±100 for the full control effect; potency is the fitted concentration of half-maximal effect; tags give direction and shape of the fitted curve.

Row | Compound | Potency | activity change, negative = growth inhibition
1 | COc1cccc(CNc2ccc(S(N)(=O)=O)cc2)c1OCc1ccccc1F | inconclusive: 14.6 µM [inhibitor, partial curve, poor fit] | –
2 | CCN(CC)C(=O)c1ccc(NC(=O)CSc2nnnn2-c2cc(OC)ccc2OC)cc1 | inconclusive: 23.1 µM [inhibitor, single point] | –
3 | Cc1sc2ccccc2c1CC1=NCCN1 | inconclusive: 23.1 µM [inhibitor, single point] | –
4 | CC1(C)Cc2c(c(N3CCOCC3)nc3sc4c(NCc5ccccc5)nnnc4c23)CS1 | active: 23.1 µM | –
5 | CCCc1[nH]nc2c1C(c1ccc(OC)c(Cn3nnc4ccccc43)c1)C(C#N)=C(N)O2 (configuration not stated) | inconclusive: 16.4 µM [inhibitor, partial curve] | –
6 | CC=C(C)C(=O)OC1CCN2CC=C(COC(=O)C(O)(C(C)OC)C(C)(C)O)C12 (configuration not stated) | – | inactive: 1.67%
7 | Cc1cc(C=C2C(=O)NC(=S)NC2=O)c(C)n1C1CCCC1 | inconclusive: 29.1 µM [inhibitor, single point] | –
8 | CCCCCSc1cc(O)c(C(CNC)C(C)C)cc1OC (configuration not stated) | active: 16.4 µM | –
9 | CCOc1ccc(S(=O)(=O)NCCc2sc3nc(-c4ccc(C)cc4)nn3c2C)cc1 | inconclusive: 16.4 µM [inhibitor, single point] | –
10 | CN1CCN(c2csc3ccc(F)cc3c2=O)CC1 | – | inactive: -3.13%
11 | C[N+]1(CC2COC(c3ccccc3)(c3ccccc3)O2)CCCCC1 (configuration not stated) | active: 18.8 µM | –
12 | COc1ccc2c(C)c(CC(=O)N3C[C@H]4C[C@@H](C3)c3cccc(=O)n3C4)c(=O)oc2c1 | – | inactive: 0.836%
13 | CCN1c2nc3c(C)cccn3c(=O)c2CC2(C(=O)N(C)C(=O)N(C)C2=O)C1C (configuration not stated) | – | inactive: -4.11%
14 | CCCCCn1c(=O)c(C(=O)NCc2ccco2)c(O)c2ccccc21 | active: 16.4 µM | –
15 | CC(=O)OC1(c2ccccc2)CCN(C2CCCCC2)CC1C (configuration not stated) | inconclusive: 8.2 µM [inhibitor, partial curve] | –
16 | CC(C)CCNC(=O)c1cc(C(=O)c2cc(Br)ccc2O)cn(CCC(C)C)c1=O | inconclusive: 29.1 µM [inhibitor, single point] | –
17 | CC(Oc1cc2oc(=O)c3c(c2cc1Cl)CCCC3)C(=O)NCc1ccccn1 (configuration not stated) | inconclusive: 29.1 µM [inhibitor, single point] | –
18 | O=S(=O)(c1ccc(F)cc1)N1CN2CCN(C2)C1 | inconclusive: 16.4 µM [inhibitor, partial curve] | –
19 | Cc1ccc(CCNC(=O)c2cc3cc(S(=O)(=O)N4CCCCC4)ccc3n2C)cc1 | active: 2.91 µM | –
20 | Cc1cccc(OP(N)(=O)Oc2cccc(C)c2C)c1C | inconclusive: 20.6 µM [inhibitor, partial curve] | –
21 | COc1ccc(C2NCc3ccccc3-n3cccc32)cc1 (configuration not stated) | inconclusive: 29.1 µM [inhibitor, single point] | –
22 | CC1OC(NCCc2ccccc2)C(O)C(O)C1O (configuration not stated) | – | inactive: 4.68%
23 | Cn1cccc1/C=C1\C(=O)NC(=O)N(Cc2ccco2)C1=O | inconclusive: 18.4 µM [inhibitor, partial curve] | –
24 | Cc1c(-c2cccc(Cl)c2)nc2ccccc2c1C(=O)N1CCC2(CC1)OCCO2 | inconclusive: 29.1 µM [inhibitor, single point] | –

Row | Compound | Potency | activity change, negative = growth inhibition
25 | COC(=O)C1=C(c2ccc(F)cc2OCc2ccccc2)C[C@@H]2CC[C@H]1N2C(=O)NCc1ccccc1OC | inconclusive: 29.1 µM [inhibitor, single point] | –
26 | COC(=O)CNC(=O)c1cn(CCC#N)nc1-c1ccc(F)cc1 | – | inactive: 6.2%
27 | CC(C)C(=O)NC(Oc1ccccc1Cl)C(Cl)(Cl)Cl (configuration not stated) | – | inactive: -16.5%
28 | C=C[C@@H]1C2=CCOC(=O)C2=CO[C@H]1O[C@@H]1O[C@H](CO)[C@@H](O)[C@H](O)[C@H]1O | – | inactive: 6.29%
29 | CCN(CC)C(=O)N[C@@H]1C=C2c3cccc4[nH]cc(c34)C[C@@H]2N(C)C1 | active: 9.44 µM | –
30 | CN1C(=O)C(=Cc2ccccc2Oc2ccc(Cl)c(F)c2)C(=O)N(C)C1=O | inconclusive: 29.1 µM [inhibitor, single point] | –
31 | CN[C@@H](C)[C@@H](O)c1ccccc1 | – | inactive: 8.51%
32 | c1ccc(-c2nnc(C3CC(c4cccnc4)=NO3)o2)cc1 (configuration not stated) | – | inactive: -1.32%
33 | Cc1cc(C(C)(C)C)cc(C)c1CC1=NCCN1 | inactive and inconclusive: 23.1 µM [inhibitor, single point] and inconclusive: 3.26 µM [inhibitor, full curve, poor fit] | –
34 | C[C@@H]1Cn2cnc(C(=O)Nc3ccc(CNC(=O)OC(C)(C)C)cc3)c2C(=O)N1 | – | inactive: -111%
35 | CC1CCC(C(C)C)C(OP(N)(=O)c2ccccc2)C1 (configuration not stated) | inconclusive: 29.1 µM [inhibitor, single point] | –
36 | COc1cc(CC(C)N)c(OC)cc1I (configuration not stated) | inconclusive: 18.4 µM [inhibitor, single point] | –
37 | COc1ccccc1N1CCN(C(CNC(=O)Oc2ccccc2)c2cccnc2)CC1 (configuration not stated) | inconclusive: 23.1 µM [inhibitor, single point] | –
38 | CCOC(=O)c1cccc(C2=C(CNC(=O)c3ccncc3)[C@H]3CC[C@@H](C2)N3Cc2ccccc2)c1 | inconclusive: 29.1 µM [inhibitor, single point] | –
39 | COc1ccc(OC)c(CN2CCN(C(=O)Cc3ccccc3)CC2)c1 | – | inactive: -3.43%
40 | O=C1NC(=S)NC(=O)C1C/C=C/c1ccccc1 | inconclusive: 8.2 µM [inhibitor, full curve, poor fit] | –
41 | Cn1c(O)c(C(=Nc2ccccc2)SCc2ccccc2Cl)c(=O)n(C)c1=O | active: 8.2 µM | –
42 | C#C[C@]1(O)CC[C@H]2[C@@H]3CCC4=CC(=O)CCC4=C3C=C[C@@]21CC | active: 9.44 µM | –
43 | CC(=O)c1ccc(N2CCN(c3ncccn3)CC2)c([N+](=O)[O-])c1 | inconclusive: 18.4 µM [inhibitor, partial curve] | –
44 | O=C(CCl)c1ccc(Cl)cc1Cl | active: 6.68 µM and active: 13.7 µM | –
45 | Cc1cccc(NC(=O)c2ccc(F)c(S(=O)(=O)N3CCN(c4ccc(F)cc4)CC3)c2)c1 | active: 16.4 µM | –
46 | Cc1cccc(C)c1-n1nnnc1C(CCc1ccccc1)N1CCC(n2c(=O)[nH]c3ccccc32)CC1 (configuration not stated) | active: 5.8 µM | –
47 | O=C(Nc1ccc2c(c1)OCCO2)c1cccn(Cc2cccc([N+](=O)[O-])c2)c1=O | active: 13 µM | –
48 | C=CCN1C(=O)C2(C(C(=O)OCC)=C(N)Oc3c2c(=O)oc2ccccc32)c2ccccc21 (configuration not stated) | inconclusive: 32.6 µM [inhibitor, partial curve, poor fit] | –

Row | Compound | Potency | activity change, negative = growth inhibition
49 | CCCCC/C=C\C/C=C\CCCCCCCC(=O)NCCO | – | inactive: -2.29% [at 4.12 µM]
50 | C=Cn1ccnc1P(=S)(c1nccn1C=C)C1CCCCC1 | inconclusive: 18.4 µM [inhibitor, single point] | –
51 | COc1cc2c(cc1OC)C13CCN4CC5=CCOC(CC(=O)O)C(C5CC41)C3N2 (configuration not stated) | – | inactive: -18.1%
52 | CCN(CC)P(=O)(Nc1ccc(Br)cc1)c1c(C)nn(CCC#N)c1NC(=O)c1ccc(Cl)cc1 (configuration not stated) | inconclusive: 8.2 µM [inhibitor, partial curve] | –
53 | O=c1c2ccccc2nc(-c2ccc(-c3ccccc3)cc2)n1-c1ccncc1 | active: 20.6 µM | –
54 | CC(=O)N1Cc2cnnn2-c2ccccc2C1(C)C#N (configuration not stated) | – | inactive: 19.9%
55 | COc1ccc(CN2CCN(C(=O)Cc3ccccc3)CC2)c(OC)c1 | – | inactive: -4.32%
56 | O=S(=O)(Nc1c(O)ccc2ccccc12)c1ccc(F)cc1 | inconclusive: 25.9 µM [inhibitor, single point] | –
57 | O=C(C[N+]12CCC(CC1)C(CO)C2)c1ccc([N+](=O)[O-])cc1 (configuration not stated) | inconclusive: 20.6 µM [inhibitor, partial curve, poor fit] | –
58 | CN(C)CC1CSCCC1(O)c1cccc(Cl)c1 (configuration not stated) | – | inactive: -10.2%
59 | Cc1cccc(N2C(=O)/C(=C/c3ccc(CN(CCC#N)S(C)(=O)=O)o3)C(=O)NC2=S)c1 | – | inactive: -6.33%
60 | C[C@@H]1CN([C@@H](C)CO)C(=O)c2c(c3ccccc3n2C)-c2ccccc2CO[C@H]1CN(C)C(=O)C1CC1 | inconclusive: 29.1 µM [inhibitor, single point] | –
61 | C=CCN1Cc2ccccc2-n2nncc2C1 | – | inactive: 3.63%
62 | COC(=O)C1=C(c2cccc(OCc3ccccc3)c2)C[C@@H]2CC[C@H]1N2C | inconclusive: 23.1 µM [inhibitor, single point] | –
63 | COCCO[C@H]1CC[C@@]2(C)C(=CCC3C2CC[C@@]2(C)C3CC[C@]2(C)O)C1 (some centres not stated) | active: 11.6 µM | –
64 | Clc1ccc(N2CC2c2ccncc2)cc1 (configuration not stated) | inconclusive: 18.4 µM [inhibitor, single point] | –
65 | O=C(C[N+]12CCC(CC1)C(CO)C2)c1ccc(Br)cc1 (configuration not stated) | – | inactive: -4.13%
66 | O=C(Nc1ccc(F)cc1)Oc1ccc[nH]c1=O | inconclusive: 20.6 µM [inhibitor, single point] | –
67 | Cc1ccc(CNS(=O)(=O)c2cc3c(cc2C)N(C)CCO3)cc1 | inconclusive: 16.4 µM [inhibitor, single point] | –
68 | NCCc1c[nH]c2ccc(OCc3ccccc3)cc12 | – | inactive: -29.3%
69 | CCN(C=C1CC2C3CC=C4CC(O)CCC4(C)C3CCC2(C)C1=O)CC (configuration not stated) | inconclusive: 29.1 µM [inhibitor, single point] | –
70 | COc1ccc(C(=O)C2CCCN(C3CSCCSC3)C2)cc1OC (configuration not stated) | inconclusive: 20.6 µM [inhibitor, partial curve] | –
71 | CC(=O)N1CN2CN(C(C)=O)CC(C(=O)c3ccc(Br)cc3)(C2)C1 | – | inactive: 9.67%
72 | COc1ccc(NS(=O)(=O)c2cc(NC(=O)COc3ccccc3)ccc2N2CCOCC2)cc1 | inconclusive: 16.4 µM [inhibitor, partial curve] | –
